From PubChem BioAssay AID686978 (National Center for Advancing Translational Sciences (NCATS), 2013)
The campaign covered roughly 420,000 compounds. About 64,000 (15%) were called active. Inconclusive means that the source gave no clear call. Such entries were picked first, then a sample of the others. Calls follow the shape of the dose curve; as a rule, active = well fitted inhibition curve with a large enough effect; inconclusive = small, poorly fitted or top-dose-only effect; inactive = flat fitted curve, though single readings scatter. No potency is given beside an inconclusive call; the fits are too rough.

assay: qHTS for Inhibitors of human tyrosyl-DNA phosphodiesterase 1 (TDP1): qHTS in cells in absence of CPT; details: DT40 Tdp1-/- hTDP1 cells, no CPT, ATP luminescence, 48 h; activity change, negative = growth inhibition: at 46.2 µM (top of the series); also: nearly all actives have a fitted effect of over 55% in size
How it was run: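 Camptothecin absent (DMSO only). Human TDP1-complemented DT40 knockout cells, 400 cells/well, 37 °C for minimum 48 hr; ATP measured via CellTiter-Glo, 30 min dark incubation, luminescence.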
% is scaled to controls: 0 for no effect and ±100 for the full control effect; potency is read from the fitted curve at half-maximal effect; tags tell the direction and shape of the fitted curve.

| Structure (SMILES) | activity change, negative = growth inhibition | Potency |
| --- | --- | --- |
| CCOC(=O)C1=C(C)N(C2CCCCC2)C(=O)C1 | inconclusive: -36.6% [inhibitor] |  |
| O=C(Nc1nnc(SCc2ccccc2F)s1)C1=COCCO1 |  | inactive |
| CCn1cc(C(=O)N2CCCC2)c(=O)c2cc(S(=O)(=O)N3CC(C)CC(C)C3)ccc21 (stereo not given) | inconclusive: -35.3% [inhibitor] |  |
| COC(=O)CSc1nc2ncccc2[nH]1 |  | inactive |
| N=C1S/C(=C\c2ccco2)C(=O)N1c1ccc2c(c1)OCO2 |  | inconclusive [inhibitor, partial curve] |
| COc1cccc2cc(C(=O)NCc3ccccc3)c(=N)oc12 |  | inconclusive [inhibitor, single point] |
| CCOC(=O)c1c(NC(=O)CSc2cn(CCNC(=O)c3ccc(OC)cc3)c3ccccc23)sc2c1CCCC2 |  | inconclusive [inhibitor, single point] |
| Cc1cccn2c(=O)c3cc(C(=O)NCC4CCCO4)c(=N)n(Cc4cccnc4)c3nc12 (stereo not given) |  | active: 25.9 µM |
| O=C(COc1ccc(S(=O)(=O)NCc2ccccc2)cc1Cl)NCc1ccncc1 |  | inconclusive [inhibitor, partial curve] |
| CCN(CC)c1cc(C)c2cc(NC(=O)CNC(C)=O)ccc2n1 |  | inactive |
| COc1ccc(C)cc1NC(=O)CCCN1C(=O)CCC1=O |  | inactive |
| CCc1nc2ccc(C(=O)O)cc2nc1CC |  | inactive |
| COc1cc2ccccc2cc1C(=O)OCC(=O)Nc1ccc(Br)cc1 |  | inconclusive [inhibitor, single point] |
| CSCC[C@H](NC(=O)c1ccco1)c1nnc2ccccn12 |  | inactive |
| C#CCOCCOCCOCCNc1nc(N2CCN(C(=O)[C@H](CC(N)=O)n3cc(C(N)[C@H](C)CC)nn3)CC2)nc(N2CCN(C(=O)[C@H](CC(N)=O)n3cc(C(N)[C@@H](C)CC)nn3)CC2)n1 (stereo not given in full) |  | inactive |
| CC(C)c1cc(Cn2c3ccccc3c(=O)n2C(C)Cn2cc(COc3ccccc3)nn2)on1 (stereo not given) |  | inconclusive [inhibitor, single point] |
| Cc1cccc(NC(=O)CN2CCCN(S(=O)(=O)c3ccc(Br)s3)CC2)c1 |  | inconclusive [inhibitor, single point] |
| CC(C)(c1ccccc1)c1ccc(OCCN)cc1 |  | active: 11.6 µM |
| Oc1ccc(C[C@H]2CN([C@@H](Cc3cccc(O)c3)CN3CCC[C@@H]3CN3C(=S)NC[C@@H]3Cc3ccccc3)C(=S)N2CC2CCCCC2)cc1 |  | active: 2.91 µM |
| CC(c1nccs1)N(C)C(=O)c1cn(Cc2cccc3ccccc23)nn1 (stereo not given) |  | inactive |
| CCCc1cc2c(=O)c(-c3ccc4c(c3)OCCO4)c(C)oc2cc1OS(C)(=O)=O |  | active: 23.1 µM |
| CC1=C(C(=O)N2CCOCC2)C(c2ccc(OC(F)F)cc2)NC(=S)N1c1ccccc1 (stereo not given) |  | inactive |
| COc1ccc(NC(=O)c2cccnc2Nc2ccc(OC)cc2)cc1 |  | inconclusive [inhibitor, single point] |

| Structure (SMILES) | activity change, negative = growth inhibition | Potency |
| --- | --- | --- |
| CSc1ccc(C(=O)C2CCCN(C(=O)c3csc(C(C)=O)c3)C2)cc1 (stereo not given) | inconclusive: -31.2% [inhibitor] |  |
| Cc1ccc(C(=O)Nc2cccc(-c3ccc(N4CCOCC4)nn3)c2)cc1[N+](=O)[O-] |  | inconclusive [inhibitor, full curve] |
| COc1ccc2c(c1)CC/C(=C\c1ccc(OC)c(Cn3cccn3)c1)C2=O |  | active: 25.9 µM |
| CC(C)C(=O)Nc1ccc(-c2nnc(-c3ccccc3)o2)cc1 |  | inconclusive [inhibitor, single point] |
| CCCc1[nH]nc2c1C1(CCN(C(=O)OCc3ccccc3)CC1)C(C#N)=C(N)O2 |  | inconclusive [inhibitor, single point] |
| Cc1cccc(CSc2cccc3cccnc23)c1 |  | active: 3.66 µM |
| Cc1ccc(-c2csc3nnc(SCC(=O)NCc4ccco4)n23)cc1 |  | inactive |
| COc1ccc(NC(=O)/C(C#N)=C/c2c(C)nn(-c3ccc(F)cc3)c2Cl)cc1Cl |  | inconclusive [inhibitor, single point] |
| CCN(c1ccccc1)S(=O)(=O)c1ccc(OCc2c(C)noc2C)cc1 |  | inactive |
| COc1cc(C(=O)Nc2cccc(-c3nc4cc(C)ccc4o3)c2)cc(OC)c1OC |  | inconclusive [inhibitor, partial curve, poor fit] |
| COc1ccccc1CCNC(=O)Cn1ccc2cc(S(=O)(=O)N3CCCC3)ccc21 |  | inconclusive [inhibitor, single point] |
| CC1(C(=O)NS(=O)(=O)c2ccc(Cl)cc2)CCN1C(=O)Cc1cc(F)ccc1F (stereo not given) |  | inactive |
| Cc1nn(C)c(C)c1S(=O)(=O)N(CC(=O)NCCCN1CCC(C)CC1)c1ccc(C(C)C)cc1 |  | inactive |
| COC(=O)c1ccccc1-c1cc(C)cc2c1OC(CNC(=O)C1CCCO1)C2 (stereo not given) |  | inconclusive [inhibitor, single point] |
| COc1ccc(CCNC(=O)CCNS(=O)(=O)c2cc(Br)cnc2N)cc1OC |  | inactive |
| CC(C)C[C@H]1CN=C(Nc2ccccc2)N1CCC(C)c1ccccc1 (stereo not given in full) |  | inconclusive [inhibitor, single point] |
| Cc1nc2sc(-c3ccccc3)cc2c(=O)[nH]1 |  | inconclusive [inhibitor, partial curve, poor fit] |
| Cc1cc(/C=C2\C(=N)N3C(SCc4ccccc4)=NSC3=NC2=O)c(C)n1Cc1ccccc1 | inconclusive: -32.2% [inhibitor] |  |
| COc1cc2sc3cc(NCC[C@@H]4CCCN4C)ccc3c(=O)c2cc1OC |  | inconclusive [inhibitor, single point] |
| CCCc1cc(C(=O)N2CCCC(N3CCN(c4ccccc4C)CC3)C2)n(C)n1 (stereo not given) |  | inconclusive [inhibitor, single point] |
| CCOc1ccc(C(=O)NCCc2csc(-c3cccc(F)c3)n2)cc1OCC |  | inconclusive [inhibitor, single point] |
| Cc1ccc(C)c(C(O)c2ncc(-c3cccc(F)c3)[nH]2)c1 (stereo not given) |  | inactive |
